Reference: the GPR68 mutational scans of Howard et al. (2025)

B1: GPR68, Q15743 (parent)
chain: MGNITADNSSMSCTIDHTIHQTLAPVVYVTVLVVGFPANCLSLYFGYLQIKARNELGVYLCNLTVADLFYICSLPFWLQYVLQHDNWSHGDLSCQVCGILLYENIYISVGFLCCISVDRYLAVAHPFRFHQFRTLKAAVGVSVVIWAKELLTSIYFLMHEEVIEDENQHRVCFEHYPIQAWQRAINYYRFLVGFLFPICLLLASYQGILRAVRRSHGTQKSRKDQIQRLVLSTVVIFLACFLPYHVLLLVRSVWEASCDFAKGVFNAYHFSLLLTSFNCVADPVLYCFVSETTHRDLARLRGACLAFLTCSRTGRAREAYPLGAPEASGKSGAQGEEPELLTKLHPAFQTPNSPGSGGFPTGRLA

Key:
[1] = variants of: B1; assay: cAMP reporter score (Enrich2 score, wild type = 0); higher = more signal; HEK293T, FACS bins
[2] = variants of: B1; assay: surface expression score (Enrich2 score, wild type = 0); higher = more signal; HEK293T, FACS bins

Variant: S311I
- cAMP reporter score ([1]; pH 5.5): 1.58
- cAMP reporter score ([1]; pH 6.5, modulator: ogerin): -2.15
- surface expression score [2]: 0.64

Variant: S311K
- cAMP reporter score ([1]; pH 5.5): 0.872
- cAMP reporter score ([1]; pH 6): 0.33
- cAMP reporter score ([1]; pH 6, modulator: ogerin): 0.34
- cAMP reporter score ([1]; pH 6.5, modulator: ogerin): 0.852
- surface expression score [2]: 0.425

Variant: S311L
- cAMP reporter score ([1]; pH 5.5): 1.79
- cAMP reporter score ([1]; pH 6, modulator: ogerin): 0.576
- cAMP reporter score ([1]; pH 6.5, modulator: ogerin): 1.3
- surface expression score [2]: 0.976

Variant: S311M
- cAMP reporter score ([1]; pH 5.5): -0.052
- cAMP reporter score ([1]; pH 6): 0.138
- cAMP reporter score ([1]; pH 6, modulator: ogerin): -0.157
- cAMP reporter score ([1]; pH 6.5, modulator: ogerin): -0.289
- surface expression score [2]: -0.343

Variant: S311N
- cAMP reporter score ([1]; pH 5.5): 0.334
- cAMP reporter score ([1]; pH 6): -0.173
- cAMP reporter score ([1]; pH 6, modulator: ogerin): 0.68
- cAMP reporter score ([1]; pH 6.5, modulator: ogerin): -0.888
- surface expression score [2]: 0.882

Variant: S311P
- cAMP reporter score ([1]; pH 5.5): 0.908
- cAMP reporter score ([1]; pH 6): 1.79
- cAMP reporter score ([1]; pH 6, modulator: ogerin): 0.955
- cAMP reporter score ([1]; pH 6.5, modulator: ogerin): 1.55
- surface expression score [2]: 0.503

Variant: S311Q
- cAMP reporter score ([1]; pH 5.5): 0.46
- cAMP reporter score ([1]; pH 6): 0.561
- cAMP reporter score ([1]; pH 6, modulator: ogerin): 0.443
- cAMP reporter score ([1]; pH 6.5, modulator: ogerin): -0.49
- surface expression score [2]: 0.788

Variant: S311R
- cAMP reporter score ([1]; pH 5.5): 1.39
- cAMP reporter score ([1]; pH 6, modulator: ogerin): 1.08
- cAMP reporter score ([1]; pH 6.5, modulator: ogerin): 1.49
- surface expression score [2]: 1.07

Variant: S311T
- cAMP reporter score ([1]; pH 5.5): 0.999
- cAMP reporter score ([1]; pH 6): 0.55
- cAMP reporter score ([1]; pH 6, modulator: ogerin): 0.987
- cAMP reporter score ([1]; pH 6.5, modulator: ogerin): 0.425
- surface expression score [2]: 0.182

Variant: S311V
- cAMP reporter score ([1]; pH 5.5): 0.803
- cAMP reporter score ([1]; pH 6): 0.771
- cAMP reporter score ([1]; pH 6, modulator: ogerin): 0.523
- cAMP reporter score ([1]; pH 6.5, modulator: ogerin): -0.1
- surface expression score [2]: 0.791

Variant: S311Y
- cAMP reporter score ([1]; pH 5.5): 0.185
- cAMP reporter score ([1]; pH 6): -0.338
- cAMP reporter score ([1]; pH 6, modulator: ogerin): 0.842
- cAMP reporter score ([1]; pH 6.5, modulator: ogerin): 0.623
- surface expression score [2]: -0.288

Variant: S311_T313del
- cAMP reporter score ([1]; pH 5.5): -0.076
- cAMP reporter score ([1]; pH 6, modulator: ogerin): -0.296
- cAMP reporter score ([1]; pH 6.5, modulator: ogerin): -0.597
- surface expression score [2]: -0.584

Variant: R312A
- cAMP reporter score ([1]; pH 5.5): -1.33
- cAMP reporter score ([1]; pH 6, modulator: ogerin): 0.514
- cAMP reporter score ([1]; pH 6.5, modulator: ogerin): 0.999
- surface expression score [2]: -0.981

Variant: R312C
- cAMP reporter score ([1]; pH 5.5): 0.376
- cAMP reporter score ([1]; pH 6, modulator: ogerin): 0.351
- cAMP reporter score ([1]; pH 6.5, modulator: ogerin): -0.239
- surface expression score [2]: -0.104

Variant: R312D
- cAMP reporter score ([1]; pH 5.5): 0.241
- cAMP reporter score ([1]; pH 6): -0.845
- cAMP reporter score ([1]; pH 6, modulator: ogerin): 0.608
- cAMP reporter score ([1]; pH 6.5, modulator: ogerin): 0.623
- surface expression score [2]: -0.492

Variant: R312E
- cAMP reporter score ([1]; pH 5.5): 0.31
- cAMP reporter score ([1]; pH 6, modulator: ogerin): 0.605
- cAMP reporter score ([1]; pH 6.5, modulator: ogerin): 0.298
- surface expression score [2]: -0.826

Variant: R312F
- cAMP reporter score ([1]; pH 5.5): -0.075
- cAMP reporter score ([1]; pH 6): -0.37
- cAMP reporter score ([1]; pH 6, modulator: ogerin): -0.064
- cAMP reporter score ([1]; pH 6.5, modulator: ogerin): -0.507
- surface expression score [2]: -0.047

Variant: R312H
- cAMP reporter score ([1]; pH 5.5): 0.399
- cAMP reporter score ([1]; pH 6): 0.775
- cAMP reporter score ([1]; pH 6, modulator: ogerin): 0.431
- cAMP reporter score ([1]; pH 6.5, modulator: ogerin): -0.092
- surface expression score [2]: -0.031

Variant: R312I
- cAMP reporter score ([1]; pH 5.5): 0.704
- cAMP reporter score ([1]; pH 6): -0.423
- cAMP reporter score ([1]; pH 6, modulator: ogerin): 0.662
- cAMP reporter score ([1]; pH 6.5, modulator: ogerin): 0.032
- surface expression score [2]: 0.603

Variant: R312K
- cAMP reporter score ([1]; pH 5.5): -0.223
- cAMP reporter score ([1]; pH 6): 0.067
- cAMP reporter score ([1]; pH 6, modulator: ogerin): -0.42
- cAMP reporter score ([1]; pH 6.5, modulator: ogerin): -0.197
- surface expression score [2]: -0.288

Variant: R312L
- cAMP reporter score ([1]; pH 5.5): -0.52
- cAMP reporter score ([1]; pH 6): -0.455
- cAMP reporter score ([1]; pH 6, modulator: ogerin): -0.408
- cAMP reporter score ([1]; pH 6.5, modulator: ogerin): -1.44
- surface expression score [2]: -1.21

Variant: R312M
- cAMP reporter score ([1]; pH 5.5): 0.115
- cAMP reporter score ([1]; pH 6): -0.591
- cAMP reporter score ([1]; pH 6, modulator: ogerin): -0.055
- cAMP reporter score ([1]; pH 6.5, modulator: ogerin): -0.462
- surface expression score [2]: -0.317

Variant: R312N
- cAMP reporter score ([1]; pH 5.5): 0.182
- cAMP reporter score ([1]; pH 6): -0.887
- cAMP reporter score ([1]; pH 6, modulator: ogerin): 0.581
- cAMP reporter score ([1]; pH 6.5, modulator: ogerin): 0.342
- surface expression score [2]: -0.454

Variant: R312Q
- cAMP reporter score ([1]; pH 5.5): -0.932
- cAMP reporter score ([1]; pH 6): 1.39
- cAMP reporter score ([1]; pH 6, modulator: ogerin): -0.449
- cAMP reporter score ([1]; pH 6.5, modulator: ogerin): -0.305
- surface expression score [2]: -0.907

Variant: R312S
- cAMP reporter score ([1]; pH 5.5): 0.116
- cAMP reporter score ([1]; pH 6, modulator: ogerin): -0.308
- cAMP reporter score ([1]; pH 6.5, modulator: ogerin): 1.05
- surface expression score [2]: -0.319

Variant: R312T
- cAMP reporter score ([1]; pH 5.5): 0.367
- cAMP reporter score ([1]; pH 6): 0.302
- cAMP reporter score ([1]; pH 6, modulator: ogerin): 0.338
- cAMP reporter score ([1]; pH 6.5, modulator: ogerin): -0.473
- surface expression score [2]: 0.987

Variant: R312W
- cAMP reporter score ([1]; pH 5.5): -0.056
- cAMP reporter score ([1]; pH 6): 0.058
- cAMP reporter score ([1]; pH 6, modulator: ogerin): -0.442
- cAMP reporter score ([1]; pH 6.5, modulator: ogerin): -0.658
- surface expression score [2]: 0.124

Variant: R312Y
- cAMP reporter score ([1]; pH 5.5): 1.08
- cAMP reporter score ([1]; pH 6, modulator: ogerin): 1.27
- cAMP reporter score ([1]; pH 6.5, modulator: ogerin): 0.225
- surface expression score [2]: 0.963

Variant: R312_G314del
- cAMP reporter score ([1]; pH 5.5): -0.171
- cAMP reporter score ([1]; pH 6): -0.287
- cAMP reporter score ([1]; pH 6, modulator: ogerin): -0.593
- cAMP reporter score ([1]; pH 6.5, modulator: ogerin): 0.173
- surface expression score [2]: -0.126

Variant: R312_T313insG
- cAMP reporter score ([1]; pH 5.5): 1.06
- cAMP reporter score ([1]; pH 6, modulator: ogerin): 1.17
- cAMP reporter score ([1]; pH 6.5, modulator: ogerin): 1.35
- surface expression score [2]: 1.62

Variant: R312_T313insGSG
- cAMP reporter score ([1]; pH 5.5): 1.06
- cAMP reporter score ([1]; pH 6): 1.22
- cAMP reporter score ([1]; pH 6, modulator: ogerin): 1.31
- cAMP reporter score ([1]; pH 6.5, modulator: ogerin): 1.14
- surface expression score [2]: 1.12

Variant: T313_G314insGS
- cAMP reporter score ([1]; pH 5.5): 1.61
- cAMP reporter score ([1]; pH 6): 1.71
- cAMP reporter score ([1]; pH 6, modulator: ogerin): 0.97
- cAMP reporter score ([1]; pH 6.5, modulator: ogerin): 1.11
- surface expression score [2]: 1.53

Scores with a large standard error are left out. Not listed are two conditions whose scores span a narrow range. In variant names, del marks residues removed and ins residues inserted between the two positions. For some assays here: The data file names ogerin without a concentration.
